# Results reported in PubChem BioAssay AID1768 (National Center for Advancing Translational Sciences (NCATS), 2009).
# Hit rate of the full screen: of about 270,000 compounds, about 620 (0.23%) were called active. This list was built around the results that the source calls inconclusive (neither active nor inactive); the mix of calls is not that of the screen. Calls follow the shape of the dose curve; as a rule, active = well fitted inhibition curve with a large enough effect in the polarisation, with a control signal flat (not every such curve was filed as active); inconclusive = small, poorly fitted or top-dose-only effect, or effect the other way, or a change in a side signal; inactive = no such curve, though single readings can be large or run the other way; the % refers to the polarisation. Potencies beside an inconclusive call are fits to weak or partial responses and may not hold up. “Side channel” marks fits to a control or component signal instead of the main read-out.
# Target: Menin (Homo sapiens) (UniProt O00255)
# Sequence of UniProt O00255 (O00255 whole entry, looked up): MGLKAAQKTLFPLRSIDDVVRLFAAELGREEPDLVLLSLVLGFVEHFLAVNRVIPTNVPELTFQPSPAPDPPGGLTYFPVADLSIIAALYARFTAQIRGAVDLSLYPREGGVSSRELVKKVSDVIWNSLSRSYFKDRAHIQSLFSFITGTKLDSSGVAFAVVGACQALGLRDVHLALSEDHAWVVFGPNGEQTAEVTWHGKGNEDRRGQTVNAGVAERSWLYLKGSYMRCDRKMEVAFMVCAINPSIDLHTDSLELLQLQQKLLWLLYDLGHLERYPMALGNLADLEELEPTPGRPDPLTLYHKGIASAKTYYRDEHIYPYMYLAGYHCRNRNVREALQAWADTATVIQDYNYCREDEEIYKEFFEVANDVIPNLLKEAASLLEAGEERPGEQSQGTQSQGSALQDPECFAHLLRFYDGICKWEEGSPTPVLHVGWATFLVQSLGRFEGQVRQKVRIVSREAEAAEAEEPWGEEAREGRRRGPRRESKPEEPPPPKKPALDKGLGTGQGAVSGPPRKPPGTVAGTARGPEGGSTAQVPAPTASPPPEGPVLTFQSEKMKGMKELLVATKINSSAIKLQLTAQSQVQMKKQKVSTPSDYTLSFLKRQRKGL
# Test: qHTS Assay for Inhibitors Targeting the Menin-MLL Interaction in MLL Related Leukemias: Competition With Texas Red Labeled MLL-derived Mutant Peptide; as to FP activity change, negative = inhibition: % of control where 0% means no effect
# Details: fluorescence polarization; FP activity change, negative = inhibition: at 61.6 µM (top of the series)
# Potency is read from the fitted curve at half-maximal effect; tags tell the direction and shape of the fitted curve or compound fluorescence and quenching.
Structure (SMILES),Potency,"FP activity change, negative = inhibition"
O=C(NC1CCCC1)C(c1ccccc1)N(Cc1ccco1)C(=O)Cc1cccs1 (stereo unspecified),inactive,–
CN1CCN(c2ccccc2NC(=O)c2ccc([N+](=O)[O-])cc2Cl)CC1,"inconclusive: 5.01 µM [inhibitor, full curve, poor fit]",–
COc1ccc(-c2nnc(SCC(=O)Nc3sc4c(c3C#N)CCC4)n2CC2CCCO2)cc1 (stereo unspecified),"inconclusive: 0.708 µM [inhibitor, full curve, poor fit]",–
NC(=O)c1nn(-c2ccccc2)nc1NC(=O)Cn1nnc(-c2ccccc2)n1,"inconclusive: 39.8 µM [fluorescent, side channel, single point]",–
COc1ccc(/C=C2\SC(=O)N(CC(=O)Nc3ccc(F)cc3)C2=O)cc1O,"inconclusive: 39.8 µM [fluorescent, side channel, single point]",–
Cn1c(=O)c(C(=O)NCc2ccc(F)cc2)c(O)c2ccccc21,"inconclusive: 39.8 µM [inhibitor, single point]",–
O=C1C(Nc2ccc(O)cc2)=C/C(=N/S(=O)(=O)c2cccs2)c2ccccc21,"inconclusive: 15.8 µM [quencher, side channel, partial curve]",–
Cc1ccc2[nH]c3c(=O)n(CCN4CCOCC4)cnc3c2c1,inactive,–
Cc1ccc(CNC(=O)c2ccc3c(=O)[nH]c4c(C(=O)NCC5CCCO5)sc(=S)n4c3c2)cc1 (stereo unspecified),"inconclusive: 3.55 µM [quencher, side channel, full curve]",–
O=C(c1cccs1)N1N=C(c2ccccc2)CC1c1ccccc1O (stereo unspecified),active: 17.8 µM,–
Cc1[nH]n(-c2cccc(Cl)c2)c(=O)c1C=NCc1ccco1,"inconclusive: 17.8 µM [quencher, side channel, partial curve]",–
O=C(NCc1cccc(Cl)c1)c1cc(COc2ccc3ncccc3c2)on1,inactive,–
COc1ccc(NS(=O)(=O)c2cc([N+](=O)[O-])ccc2N/N=C\c2c(C)[nH]c3ccccc23)cc1,"inconclusive: 3.55 µM [quencher, side channel, full curve]",–
CCn1c(C)nc2cc(C(=O)N/N=C/c3ccc(OC)c(O)c3)ccc21,"inconclusive: 35.5 µM [inhibitor, single point]",–
CN=C1N[C@H](c2ccccc2)N(c2ccccc2)S1,inactive,–
O=C(Nc1nnc(CSCc2ccccc2F)s1)c1cccc([N+](=O)[O-])c1,"inconclusive: 39.8 µM [quencher, side channel, single point]",–
S=c1[nH]c2ccc(Cc3ccc4[nH]c(=S)[nH]c4c3)cc2[nH]1,"inconclusive: 28.2 µM [quencher, side channel, partial curve]",–
CCn1c(SCc2nc3sc(C(=O)O)c(C)c3c(=O)[nH]2)nc2ccccc21,inactive,–
CC(=O)c1cc(-c2ccc(F)cc2)n(CCC(=O)Nc2cccnc2)c1C,inactive,–
Cc1ccc(S(=O)(=O)Cc2cc(F)c([N+](=O)[O-])cc2[N+](=O)[O-])cc1,"inconclusive: 28.2 µM [quencher, side channel, partial curve]",–
CC(=O)N1N=C(c2cccc(Br)c2)OC12CCCC2,"inconclusive: 31.6 µM [fluorescent, side channel, single point]",–

Structure (SMILES),Potency,"FP activity change, negative = inhibition"
O=C(CSc1nnc(-c2ccccc2)n1C1CCCCC1)Nc1ccc(S(=O)(=O)Nc2ccccn2)cc1,"inconclusive: 17.8 µM [fluorescent, side channel, partial curve]",–
O=C1N(c2ccccc2)C2CS(=O)(=O)CC2N1c1ccc(Br)cc1 (stereo unspecified),"inconclusive: 39.8 µM [quencher, side channel, single point]",–
COc1ccc2nc(Nc3nc4cc5c(cc4s3)OCO5)sc2c1,"inconclusive: 14.1 µM [quencher, side channel, partial curve]",–
COc1ccc(CN2CCN(C(=O)C3CCC(CNS(=O)(=O)c4ccccc4)CC3)CC2)c(OC)c1OC (stereo unspecified),"inconclusive: 14.1 µM [fluorescent, side channel, partial curve]",–
Cc1ccc(N(CC(=O)NC(C)(C)C)C(=O)CNC(=O)c2cccs2)cc1,"inconclusive: 10 µM [inhibitor, partial curve]",–
O=C(O)C1Nc2c(O)cccc2C2C=CCC12 (stereo unspecified),"inconclusive: 35.5 µM [quencher, side channel, single point]",–
Cc1ccc(CN2CCSc3ccc(C(=O)N4CCN(c5ncccn5)CC4)cc32)cc1,inactive,–
CCOC(=O)c1cnc2ccc(C)cc2c1N(C)Cc1ccccc1,"inconclusive: 11.2 µM [inhibitor, partial curve, poor fit]",–
O=c1cc(-c2ccco2)nc(SCc2cccc(Cl)c2)[nH]1,"inconclusive: 39.8 µM [inhibitor, single point]",–
Cc1cc(=O)[nH]c(SCc2nc3ncccn3c2Br)n1,inactive,–
CN(CC(=O)NCCc1ccc(F)cc1)Cc1ccccc1,"inconclusive: 39.8 µM [inhibitor, partial curve]",–
CC(C)c1nc(NCc2ccccc2)c(C#N)c2c1CCCC2,"inconclusive: 31.6 µM [inhibitor, single point]",–
COc1ccc(S(=O)(=O)N2CCN(C(=O)NC3CCCCC3)CC2)cc1OC,inactive,–
CCCc1nc(SCc2ccc(OCC)cc2)n[nH]1,"inconclusive: 31.6 µM [inhibitor, partial curve]",–
Nc1cccc2nc3ccccc3cc12,inactive,–
CCc1nc2ccccc2c(C(=O)OCC(=O)Nc2cccc(S(=O)(=O)N3CCOCC3)c2)c1C,"inconclusive: 10 µM [quencher, side channel, partial curve]",–
C(=N\N1CCN(C2c3ccccc3-c3ccccc32)CC1)/c1ccccn1,"inconclusive: 11.2 µM [fluorescent, side channel, partial curve]",–
Cc1ccc(N2C(=O)CC(Sc3ccccc3C(=O)O)C2=O)c([N+](=O)[O-])c1 (stereo unspecified),"inconclusive: 8.91 µM [quencher, side channel, partial curve]",–
O=C(O)/C=C/C(=O)Nc1ccc(NC(=O)c2ccccc2)c(Cl)c1,"inconclusive: 25.1 µM [quencher, side channel, single point]",–
O=C1CCC[C@@H](C(C(=O)OCc2ccccc2)C(=O)OCc2ccccc2)C1,–,inactive: -5.65% [at 11.7 µM]
COc1cc(/C=C/C(=O)N2CCOCC2)ccc1OCc1ccccc1,"inconclusive: 4.47 µM [inhibitor, single point]",–

Structure (SMILES),Potency,"FP activity change, negative = inhibition"
COc1cccc(C(=O)NC(=S)Nc2ccc(N3CCCC3)cc2)c1,"inconclusive: 22.4 µM [quencher, side channel, partial curve]",–
CC1=C(C(N)=O)C(c2ccccn2)n2nc(SCc3ccccc3Cl)nc2N1 (stereo unspecified),inactive,–
COc1ccc(OC)c(/C=N/N(C)c2ccccc2)c1,"inconclusive: 20 µM [quencher, side channel, partial curve]",–
Cc1nc(C)c(-c2csc(Nc3cccc(O)c3)n2)s1,"inconclusive: 15.8 µM [quencher, side channel, partial curve]",–
Cn1c(NCCCN2CCOCC2)nc2c1c(=O)n(Cc1ccc(Cl)cc1Cl)c(=O)n2C,inactive,–
C=CCOc1ccc(C2OC34CCCCC3C(C#N)(C#N)C2(C#N)C(=N)O4)cc1 (stereo unspecified),inactive,–
COC(=O)[C@@H]1C[C@H]2CC[C@H](O)C[C@H]2N1Cc1c(F)cccc1Cl,"inconclusive: 39.8 µM [inhibitor, single point]",–
c1coc(-c2nnc(SCc3nc4ccccc4[nH]3)o2)c1,"inconclusive: 31.6 µM [quencher, side channel, single point]",–
Cc1ccc(C(=O)Nc2sc3c(c2C#N)CCCCC3)cc1C,"inconclusive: 1.78 µM [inhibitor, partial curve]",–
COc1ccc(NC(=O)c2ccc(C#N)cc2)cc1NS(=O)(=O)c1ccc(F)cc1,"inconclusive: 20 µM [quencher, side channel, partial curve]",–
O=[N+]([O-])c1ccc(-c2nnc(CNC3CCCC3)o2)cc1,"inconclusive: 39.8 µM [quencher, side channel, single point]",–
COCCCNC(=S)NCCCNc1nc2cc3c(cc2cc1C#N)OCO3,"inconclusive: 39.8 µM [fluorescent, side channel, single point]",–
O=C(NC(=S)Nc1cc([N+](=O)[O-])ccc1O)c1cccnc1,"inconclusive: 20 µM [quencher, side channel, partial curve]",–
CCCCCC(O)(c1ccccc1)C(CN1CCOCC1)c1ccccc1 (stereo unspecified),"inconclusive: 7.08 µM [fluorescent, side channel, partial curve]",–
O=C(NC(NC(=S)Nc1c(Cl)cccc1Cl)C(Cl)(Cl)Cl)c1cccc([N+](=O)[O-])c1 (stereo unspecified),"inconclusive: 11.2 µM [quencher, side channel, partial curve]",–
O=C(CCCc1c[nH]c2ccccc12)NCCc1c[nH]c2ccccc12,"inconclusive: 20 µM [quencher, side channel, partial curve]",–
O=C(c1ccccc1F)N1CCN(S(=O)(=O)c2ccc(S(=O)(=O)N3CCCCC3)cc2)CC1,"inconclusive: 25.1 µM [fluorescent, side channel, single point]",–
O=C(COc1ccc2ccccc2c1)N1c2ccccc2Sc2ccccc21,"inconclusive: 39.8 µM [inhibitor, single point]",–
COc1ccc(N2CCN(C(=O)c3sc4nc(-c5ccc(F)cc5)cn4c3C)CC2)cc1,"inconclusive: 2 µM [inhibitor, full curve]",–
